The target in experiment [1] is TSHR coated onto tubes (TSHR coated tubes) (human) (UniProt P16473). Kind of experiment: TSHR coated tubes. Further details: reference of the scale not given here.
Experiment [2] has the same target. Kind of experiment: TSHR coated tubes. Also noted: reference of the scale not given here. This is another data set of the same source.

Some values that stand alone complete this part of the results.

“M22 IgG (human monoclonal thyroid stimulating autoantibody, hMAb TSHR1)”: the % inhibition of 125I-5C9 IgG binding was 4.3% in experiment [1] (Assay calibrator 1 U/L); 15% in experiment [1] (Assay calibrator 2 U/L); 62% in experiment [1] (Assay calibrator 8 U/L); 87% in experiment [1] (Assay calibrator 40 U/L); 21.3% in experiment [2] (Assay calibrator 2 U/L); 87.2% in experiment [2] (Assay calibrator 40 U/L). Further, the % inhibition of 125I-TSH binding in experiment [1] (Assay calibrator 1 U/L) is 15%; in experiment [1] (Assay calibrator 2 U/L), 27%; in experiment [1] (Assay calibrator 8 U/L), 67%; in experiment [1] (Assay calibrator 40 U/L), 90%. Moreover, the % inhibition of 125I-M22 IgG binding in experiment [2] (Assay calibrator 1 U/L) turned out to be 21.8%; in experiment [2] (Assay calibrator 2 U/L) it was 27.9%; in experiment [2] (Assay calibrator 8 U/L), 63.3%; in experiment [2] (Assay calibrator 40 U/L), 82.2%.

The values are drawn from patent publication US8840891 (RSR, dated 2014).
